# Laboratory results reported in the supplement of paper PMC3334620.
# In all, about 33,000 sequences were measured (“E-score (-0.5 to 0.5)”: median about -0.035, highest 2% from about 0.35 on). This is one part of the list.
# Molecular target: T1, Pdr3 (UniProt P33200)
# T1 sequence: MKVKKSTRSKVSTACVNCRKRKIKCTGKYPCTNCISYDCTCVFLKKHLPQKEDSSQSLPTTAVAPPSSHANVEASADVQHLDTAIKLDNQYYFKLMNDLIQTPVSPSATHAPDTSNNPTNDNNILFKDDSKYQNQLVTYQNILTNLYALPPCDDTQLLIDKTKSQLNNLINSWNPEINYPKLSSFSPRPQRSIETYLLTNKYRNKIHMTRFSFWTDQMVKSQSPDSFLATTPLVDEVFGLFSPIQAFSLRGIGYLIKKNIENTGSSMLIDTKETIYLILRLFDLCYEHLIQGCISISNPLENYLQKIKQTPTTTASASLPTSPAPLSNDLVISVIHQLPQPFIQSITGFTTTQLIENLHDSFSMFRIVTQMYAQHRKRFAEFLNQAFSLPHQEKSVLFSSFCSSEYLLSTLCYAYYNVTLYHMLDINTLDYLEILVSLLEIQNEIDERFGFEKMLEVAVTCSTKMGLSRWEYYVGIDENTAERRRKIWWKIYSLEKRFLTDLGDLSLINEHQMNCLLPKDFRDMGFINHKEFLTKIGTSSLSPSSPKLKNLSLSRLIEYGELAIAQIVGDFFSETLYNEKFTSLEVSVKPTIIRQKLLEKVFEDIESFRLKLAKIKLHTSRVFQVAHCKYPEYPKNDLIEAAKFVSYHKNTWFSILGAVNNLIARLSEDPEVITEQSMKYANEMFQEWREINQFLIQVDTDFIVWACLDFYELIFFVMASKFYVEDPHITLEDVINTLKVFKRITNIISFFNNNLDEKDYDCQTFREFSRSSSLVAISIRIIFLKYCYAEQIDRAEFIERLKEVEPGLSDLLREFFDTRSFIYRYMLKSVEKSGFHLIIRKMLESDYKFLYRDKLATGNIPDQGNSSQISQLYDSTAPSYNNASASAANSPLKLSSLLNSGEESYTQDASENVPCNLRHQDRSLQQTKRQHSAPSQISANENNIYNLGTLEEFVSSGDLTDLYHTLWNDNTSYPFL
# Experiment: PBM E-score (8-mer binding enrichment) (E-score (-0.5 to 0.5)); higher = stronger / more preferred TF binding; most listed sequences are background and not binding sites
# Settings: protein concentration: 200 nM; construct: GST-full length
# Experimental: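 Universal 'all 10-mer' protein binding microarrays (Agilent AMADID 015681) probed with GST-tagged S. cerevisiae TFs (full-length or DBD) made by in vitro transcription/translation (PURExpress), about 100-200 nM. Bound TF was detected with fluorescent anti-GST. Each ungapped 8-mer (which stands for itself and its reverse complement) is scored by the PBM enrichment score (E-score), a modified Wilcoxon-Mann-Whitney statistic from -0.5 to +0.5, computed with the Universal PBM Analysis Suite. Scale: above 0.35 generally sequence-specific binding.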
row,Sequence,PBM E-score
1,CGAGCTAG,0.0187
2,ATGACAAA,-0.0898
3,ATCTAACC,0.122
4,AGAGGACA,-0.0484
5,CGAAGGCG,0.114
6,GTGTCATA,-0.0195
7,ATCGCGAC,0.0765
8,AGTTCGCA,0.0197
9,AACCGCAT,0.106
10,CCCAACGG,0.16
11,ACTTGGAA,-0.156
12,ATCTGGCA,-0.111
13,CCAGACGA,0.027
14,ACGGCAAG,0.0406
15,AATGCCAC,-0.0043
16,GTCGTATA,-0.0633
17,AAGGAGCT,-0.218
18,CTACATGC,-0.149
19,ACATCGGC,0.145
20,GCATTCAC,0.118
21,ACAATAGT,-0.0518
22,AAGAATAA,-0.138
23,AACAGACG,0.0207
24,AAACTTCG,-0.0284
25,GCAAAGAC,-0.15

row,Sequence,PBM E-score
1,AGGGCTCC,-0.108
2,GGGACATA,0.171
3,ATCTCATG,-0.0344
4,CCTTGTCG,-0.272
5,AATGGAAC,0.0897
6,AAGAATAG,-0.0593
7,ACCAGAGC,0.0757
8,AACTCAAG,-0.0399
9,AGTTGGTA,-0.111
10,ACTTGGCG,-0.0433
11,GCGACCCC,0.0569
12,CGAAAGCG,-0.0626
13,CACGGGGG,0.171
14,TGACCTCA,-0.148
15,CTTGGCAA,-0.299
16,CAATGCTG,-0.223
17,GGAGTACA,-0.00417
18,CAAAAGCG,-0.0161
19,GGAATTCA,0.174
20,ACAAAACT,0.00035
21,CGTCGTAC,-0.112
22,ACTGGAGC,-0.056
23,GGCACGAA,-0.0672
24,CAGATCTG,-0.0317
25,AATTAAGT,0.0515

row,Sequence,PBM E-score
1,CGACAAAC,-0.0374
2,AATTCAGA,-0.111
3,CTGCAAGC,-0.206
4,CCAGCAGA,-0.0116
5,CATCGGAG,0.0478
6,CTGATCAA,-0.0352
7,AATCTAGG,-0.0668
8,ACAGTGTG,-0.189
9,AGCGTGTA,-0.101
10,CCAAAAGG,-0.243
11,GTTGATCA,0.0338
12,GAATAGAC,-0.218
13,GTGGGTGA,0.179
14,ACTGATGA,-0.185
15,GAAACCGA,0.11
16,CCTCAATC,0.0825
17,ACATAATA,0.0902
18,AACGGAGA,0.243
19,ATATCGCG,0.257
20,CCTAGCCC,-0.0864
21,AAAGATGT,-0.0757
22,GAGGAGCC,-0.0654
23,CGTTGATC,-0.0265
24,CACAGGCA,-0.115
25,CGCGTGAG,0.0757

row,Sequence,PBM E-score
1,AGCGAGCT,0.126
2,AGGTTCAC,0.0101
3,AAACTACT,0.0125
4,GACCGGTA,-0.0279
5,CAATCTAA,-0.0346
6,AGTGTATA,-0.26
7,GAGTTCGC,0.103
8,ACTCCAGG,-0.113
9,GCTAGTAA,0.0102
10,CGCCTTAG,-0.0386
11,CTCCACTC,-0.226
12,AACGCCCA,-0.107
13,CAGAAACC,0.0609
14,CGTTCGGA,0.414
15,CACAGGGA,-0.0576
16,AGCTGTCA,-0.105
17,AACGGCTC,0.0795
18,ACGCGTGA,0.154
19,ACTGTGGC,-0.16
20,CGTGCGTC,0.126
21,CATTCACC,0.195
22,CAAGGCTG,-0.364
23,GGCAGTCA,0.0564
24,AACGTACA,-0.122
25,GGTAACTA,0.0937

row,Sequence,PBM E-score
1,CGGCCGGC,0.371
2,CCTAAAAG,-0.347
3,CAGGAAAG,-0.278
4,GCGGCTCC,0.111
5,AGCACCCG,0.196
6,CCGTGGCA,0.249
7,CGCTTAGC,0.0147
8,ACGAATAT,0.0203
9,GACAGCGA,-0.188
10,GGATCACC,0.0544
11,CTTAATTC,-0.044
12,GGTTATTA,0.0103
13,ATCACCCA,-0.0491
14,GTACGACA,-0.147
15,GGAATCCC,0.308
16,ACCTATTG,-0.217
17,CAACGTGC,-0.0526
18,ATATAGCG,0.00013
19,CTCCGTCC,0.247
20,AGCACCAT,-0.224
21,AGCTCTAT,-0.16
22,AGGTAAAC,0.0171
23,CGTGCAAG,0.0356
24,CATATCCG,0.301
25,GAATCCAC,-0.111

row,Sequence,PBM E-score
1,ATGACCAC,-0.0139
2,GATTCAAC,0.187
3,GTGCGGAA,0.366
4,GGACCATA,0.0499
5,AATTCCGC,0.397
6,AAAAGCAT,-0.142
7,ACGCATTC,0.0991
8,CACAGATA,-0.265
9,AGGGACAC,0.0216
10,GGGGCTTA,-0.159
11,CAGTCTGC,-0.173
12,AAACACCG,0.103
13,ACGATAGC,-0.0446
14,AGCGACGC,-0.0316
15,ACTTTAGA,-0.0766
16,ACTTCACG,-0.11
17,CTTTAGTC,-0.276
18,ATGCCGCG,0.346
19,GAGGTAGA,0.082
20,CGAATGCC,0.112
21,CCTCATCG,0.0337
22,ACTACTGG,-0.208
23,ATCGAGGG,0.0924
24,CTGTCAGC,-0.0336
25,CGCAACCC,0.145

row,Sequence,PBM E-score
1,CTAGACTA,-0.12
2,GCCAGTAC,-0.0709
3,CTAGGGGC,-0.0925
4,CTTAAACA,-0.0118
5,GACTGGAC,-0.158
6,CGTTTAGC,-0.00911
7,AAATTGAG,-0.11
8,ATTAGCGG,0.14
9,CATAAACA,-0.0619
10,ACAGGTCT,-0.135
11,GTGGAAAC,0.0684
12,GAGTACAC,-0.115
13,CTAGGTTA,0.0843
14,AATGCACA,0.0104
15,AGCTAATA,-0.069
16,CATCGGAA,0.422
17,AACCCTTG,-0.139
18,ATCAGGCG,-0.0646
19,ATAACCGC,0.131
20,TAACGGCA,0.0384
21,AACCTGCG,0.186
22,ACTCTTAA,-0.273
